Reference: the supplement of paper PMC4604168 (melanoma cell lines)
The list shows a part of the results. Many values rest on one well or one pass, so single values are uncertain.

Assays:
Experiment in all cases: cell count relative to DMSO control; melanoma cells; higher = more viable cells
Details in all cases: library dose: low library concentration; 72 h; first compound 0.4 µM
[1] = tested on: WM115
[2] = tested on: WM1716
[3] = tested on: WM1745
[4] = tested on: WM3526
[5] = tested on: WM3619
[6] = tested on: WM451Lu
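Further: cell number obtained by counting DAPI-stained nuclei in high-throughput microscope images with image analysis software, screen run in 1,536-well plates.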

Compound | cell count [1] | cell count [2] | cell count [3] | cell count [4] | cell count [5] | cell count [6]
C[C@@H](N)c1ccc(C(=O)Nc2ccnc3[nH]ccc23)cc1 + NCC(=O)Nc1ccc(-n2nc(C(F)(F)F)cc2-c2ccc3c(ccc4ccccc43)c2)cc1 [OSU03012] (partner dose 1 µM) | 91% | 73.6% | 88.5% | 37.1% | 103% | 69.6%
CCCCCCCCCCCCCCCCCCOP(=O)([O-])OC1CC[N+](C)(C)CC1 [Perifosine] + Oc1cc(-c2nc(-c3ccccc3)[nH]c2-c2ccncc2)ccc1Cl [L779450] (partner dose 0.2 µM) | 75.5% | 96.8% | 83.5% | 78.8% | 75.7% | 97.7%
Cn1sc(=O)n(Cc2ccccc2)c1=O + O=c1cc(-c2cccc3c2Sc2ccccc2S3)oc(N2CCOCC2)c1 [KU55933] (partner dose 1 µM) | 97.4% | 99% | 88.4% | 89% | 118% | 96.6%
Cn1sc(=O)n(Cc2ccccc2)c1=O + COCC[n+]1c2c(n(Cc3cnccn3)c1C)C(=O)c1ccccc1C2=O [YM155] (partner dose 0.0004 µM) | 102% | 95.3% | 92.7% | 101% | 99.1% | 81.4%
CCCCCCCCCCCCCCCCCCOP(=O)([O-])OC1CC[N+](C)(C)CC1 [Perifosine] + OCc1c[nH]c2ccccc12 [Indole-3-carbinol] (partner dose 0.8 µM) | 99.4% | 75.6% | 92% | 82.3% | 111% | 103%
C[C@@H](N)c1ccc(C(=O)Nc2ccnc3[nH]ccc23)cc1 + CC1(C)NC(=O)N(c2ccc([N+](=O)[O-])c(C(F)(F)F)c2)C1=O [nilutamide] (partner dose 1 µM) | 110% | 76.5% | 87.9% | 118% | 98.9% | 90%
C[C@@H](N)c1ccc(C(=O)Nc2ccnc3[nH]ccc23)cc1 + CCCCCCCCc1ccc(CCC(N)(CO)CO)cc1 [fingolimod] (partner dose 2 µM) | 109% | 71.8% | 72.6% | 103% | 98% | 99.4%
C[C@@H](N)c1ccc(C(=O)Nc2ccnc3[nH]ccc23)cc1 + CCCCCCCCCCCC1=C(O)C(=O)C=C(O)C1=O [Embelin] (partner dose 1.2 µM) | 112% | 63.2% | 76.9% | 93.3% | 85.6% | 89.3%
Cn1sc(=O)n(Cc2ccccc2)c1=O + CCCCCCCCCCCC1=C(O)C(=O)C=C(O)C1=O [Embelin] (partner dose 1.2 µM) | 101% | 102% | 79.5% | 108% | 97.4% | 98.9%
C[C@@H](N)c1ccc(C(=O)Nc2ccnc3[nH]ccc23)cc1 + OCCn1cc(-c2cnc3nnn(Cc4ccc5ncccc5c4)c3n2)cn1 [PF04217903] (partner dose 1 µM) | 102% | 61.7% | 73% | 111% | 84.8% | 84.4%
CCCCCCCCCCCCCCCCCCOP(=O)([O-])OC1CC[N+](C)(C)CC1 [Perifosine] + Cc1cc(Nc2cc(N3CCN(C)CC3)nc(/C=C/c3ccccc3)n2)n[nH]1 [ENMD2076] (partner dose 0.04 µM) | 90.3% | 104% | 119% | 91.9% | 86.1% | 112%
C[C@@H](N)c1ccc(C(=O)Nc2ccnc3[nH]ccc23)cc1 + COc1ccc(C2=N[C@@H](c3ccc(Cl)cc3)[C@@H](c3ccc(Cl)cc3)N2C(=O)N2CCNC(=O)C2)c(OC(C)C)c1 [Nutlin-3] (partner dose 0.1 µM) | 116% | 72% | 90.6% | 146% | 92.2% | 92.6%
CCCCCCCCCCCCCCCCCCOP(=O)([O-])OC1CC[N+](C)(C)CC1 [Perifosine] + CCCS(=O)(=O)Nc1ccc(F)c(C(=O)c2c[nH]c3ncc(Cl)cc23)c1F [PLX4720] (partner dose 0.08 µM) | 106% | 112% | 126% | 110% | 119% | 108%
C[C@@H](N)c1ccc(C(=O)Nc2ccnc3[nH]ccc23)cc1 + CC(C)(C)c1cnc(CSc2cnc(NC(=O)C3CCNCC3)s2)o1 [SNS-032] (partner dose 0.01 µM) | 96.2% | 63.7% | 72.3% | 96.7% | 47.2% | 109%
C[C@@H](N)c1ccc(C(=O)Nc2ccnc3[nH]ccc23)cc1 + Cn1sc(=O)n(Cc2ccccc2)c1=O [TDZD-8] (partner dose 0.4 µM) | 91.1% | 76.5% | 94.2% | 148% | 92.4% | 81.3%
Cn1sc(=O)n(Cc2ccccc2)c1=O + NC(=O)Nc1cc(-c2cccc(F)c2)sc1C(=O)N[C@H]1CCCNC1 [AZD7762] (partner dose 0.02 µM) | 90.5% | 92.1% | 108% | 80.9% | 85.1% | 91.7%
C[C@@H](N)c1ccc(C(=O)Nc2ccnc3[nH]ccc23)cc1 + NC1(c2ccc(-c3nc4ccn5c(=O)[nH]nc5c4cc3-c3ccccc3)cc2)CCC1 [MK2206] (partner dose 0.4 µM) | 89% | 51.1% | 72.9% | 79.4% | 86.1% | 86.5%
Cn1sc(=O)n(Cc2ccccc2)c1=O + O=C(O)c1ccc(-c2c[nH]c3ncc(-c4ccccc4)cc23)cc1C1CCCC1 [GSK650394] (partner dose 0.16 µM) | 98.6% | 94.5% | 88.4% | 74.8% | 91.5% | 75.5%
C[C@@H](N)c1ccc(C(=O)Nc2ccnc3[nH]ccc23)cc1 + N#Cc1c(O)c2c(-c3ccc(-c4ccccc4O)cc3)csc2[nH]c1=O [A769662] (partner dose 2 µM) | 103% | 79.1% | 84.4% | 97.2% | 94.5% | 86.6%
C[C@@H](N)c1ccc(C(=O)Nc2ccnc3[nH]ccc23)cc1 + Clc1ccc(Nc2nnc(Cc3ccncc3)c3ccccc23)cc1 [vatalanib] (partner dose 2 µM) | 101% | 76.8% | 79.6% | 146% | 60.9% | 59.3%
C[C@@H](N)c1ccc(C(=O)Nc2ccnc3[nH]ccc23)cc1 + O=C(Nc1ccccc1)c1cc([N+](=O)[O-])ccc1Cl [GW9662] (partner dose 2 µM) | 103% | 75.7% | 87.9% | 129% | 119% | 99.7%
C[C@@H](N)c1ccc(C(=O)Nc2ccnc3[nH]ccc23)cc1 + CN(c1ncccc1CNc1nc(Nc2ccc3c(c2)CC(=O)N3)ncc1C(F)(F)F)S(C)(=O)=O [PF562271] (partner dose 0.08 µM) | 95.4% | 48.5% | 54.2% | 105% | 96.5% | 88.8%
C[C@@H](N)c1ccc(C(=O)Nc2ccnc3[nH]ccc23)cc1 + Cc1cc(N2CCOCC2)cc2[nH]c(-c3c(NC[C@@H](O)c4cccc(Cl)c4)cc[nH]c3=O)nc12 [BMS536924] (partner dose 0.2 µM) | 108% | 66.1% | 53.3% | 108% | 108% | 81.3%
CCCCCCCCCCCCCCCCCCOP(=O)([O-])OC1CC[N+](C)(C)CC1 [Perifosine] + Nc1ccn([C@@H]2O[C@H](CO)[C@@H](O)C2(F)F)c(=O)n1 [gemcitabine] (partner dose 0.0004 µM) | 89.2% | 85.4% | 74.1% | 97.7% | 114% | 98.5%
Cn1sc(=O)n(Cc2ccccc2)c1=O + O=C(O)C(=O)Nc1sc2c(c1C(=O)O)CCNC2 [TCS401] (partner dose 1.66667 µM) | 107% | 115% | 95.4% | 104% | 96.8% | 121%
CCCCCCCCCCCCCCCCCCOP(=O)([O-])OC1CC[N+](C)(C)CC1 [Perifosine] + O=C(Nc1cccc(Cl)c1)Nc1ncc(CCNc2ncnc3ccsc23)s1 [SNS314] (partner dose 0.0008 µM) | 84.1% | 93.9% | 82.9% | 88% | 89.5% | 74.2%
Cn1sc(=O)n(Cc2ccccc2)c1=O + Cn1cc(/C=C2\C(=O)Nc3cccnc32)c2ccccc21 [GW441756] (partner dose 0.4 µM) | 96.5% | 92.9% | 115% | 91.9% | 92.3% | 110%
C[C@@H](N)c1ccc(C(=O)Nc2ccnc3[nH]ccc23)cc1 + Cn1c(Nc2ccc(C(F)(F)F)cc2)nc2cc(Oc3ccnc(-c4ncc(C(F)(F)F)[nH]4)c3)ccc21 [CHIR265] (partner dose 0.08 µM) | 80.2% | 63.7% | 53.8% | 66.4% | 78.2% | 107%
Cn1sc(=O)n(Cc2ccccc2)c1=O + COc1cc2c(Oc3ccc4[nH]c(C)cc4c3F)ncnc2cc1OCCCN1CCCC1 [cediranib] (partner dose 0.4 µM) | 94.5% | 112% | 78.2% | 90.2% | 95.6% | 97%
CCCCCCCCCCCCCCCCCCOP(=O)([O-])OC1CC[N+](C)(C)CC1 [Perifosine] + Nc1cccc2c1CN(C1CCC(=O)NC1=O)C2=O [lenalidomide] (partner dose 1 µM) | 96.1% | 81.7% | 98% | 93.4% | 80.5% | 99.1%
